Measurements published in article PMC4336329 (PLoS ONE, 2015).
Out of some 310,000 compounds screened, about 14,000 (4.5%) showed an effect of 50% or more. The effect is printed as a negative number. This is one part of the list.

target: human ether-à-go-go-related gene (hERG) potassium channel (human, UniProt Q12809); test: primary screen, population patch clamp on CHO cells stably expressing hERG
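Also: peak tail current of the secondary pulse compared with the same well before compound.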

Sequence of human ether-à-go-go-related gene (hERG) potassium channel (Q12809 whole entry, looked up): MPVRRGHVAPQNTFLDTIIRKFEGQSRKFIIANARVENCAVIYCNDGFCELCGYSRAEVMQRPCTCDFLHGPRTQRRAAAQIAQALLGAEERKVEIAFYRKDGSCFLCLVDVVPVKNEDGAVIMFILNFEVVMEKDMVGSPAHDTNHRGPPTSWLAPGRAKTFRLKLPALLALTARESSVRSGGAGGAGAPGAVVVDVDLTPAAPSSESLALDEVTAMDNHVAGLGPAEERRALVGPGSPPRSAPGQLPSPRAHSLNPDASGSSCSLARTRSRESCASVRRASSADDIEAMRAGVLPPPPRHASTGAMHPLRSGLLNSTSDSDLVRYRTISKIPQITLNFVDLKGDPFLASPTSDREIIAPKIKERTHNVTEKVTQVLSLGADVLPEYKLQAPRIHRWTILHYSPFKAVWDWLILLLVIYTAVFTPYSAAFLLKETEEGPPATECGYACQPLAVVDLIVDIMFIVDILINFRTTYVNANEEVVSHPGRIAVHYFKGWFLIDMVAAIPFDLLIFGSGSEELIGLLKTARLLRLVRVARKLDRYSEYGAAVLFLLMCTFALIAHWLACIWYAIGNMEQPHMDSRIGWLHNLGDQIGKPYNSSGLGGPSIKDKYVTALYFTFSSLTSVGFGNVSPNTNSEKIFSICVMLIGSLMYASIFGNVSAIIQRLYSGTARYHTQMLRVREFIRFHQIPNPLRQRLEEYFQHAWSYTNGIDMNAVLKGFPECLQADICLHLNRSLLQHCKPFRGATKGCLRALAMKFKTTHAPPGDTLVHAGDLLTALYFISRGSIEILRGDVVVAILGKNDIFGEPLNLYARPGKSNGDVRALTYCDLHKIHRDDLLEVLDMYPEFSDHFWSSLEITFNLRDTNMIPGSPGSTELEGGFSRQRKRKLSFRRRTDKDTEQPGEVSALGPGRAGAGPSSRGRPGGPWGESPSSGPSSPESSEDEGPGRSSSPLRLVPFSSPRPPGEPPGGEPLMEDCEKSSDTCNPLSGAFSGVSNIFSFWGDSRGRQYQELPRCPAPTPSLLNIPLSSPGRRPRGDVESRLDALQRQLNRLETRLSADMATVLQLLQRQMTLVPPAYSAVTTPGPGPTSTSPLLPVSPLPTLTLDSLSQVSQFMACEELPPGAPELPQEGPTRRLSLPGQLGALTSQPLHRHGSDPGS

SMILES | hERG current change (%, negative = inhibition) at 10uM
CC(C)C(=O)c1cn(CC(=O)O)c2ccccc12 | 8.27%
NC(=O)COC(=O)c1cccc(S(=O)(=O)N2CCN(c3ccccc3)CC2)c1 | 12.7%
O=C(NCCc1ccccc1)c1ccccc1Cl | 3.33%
Cc1ccc(S(=O)(=O)N/N=C/c2cn(C)nc2C)cc1 | -2.68%
CC(OC(=O)c1cccc(-n2cnnn2)c1)C(=O)Nc1ccccc1F (centres unmarked) | -11.5%
O=C(NC(NC(=S)Nc1c(Cl)cc(Cl)cc1Cl)C(Cl)(Cl)Cl)OCc1ccccc1 (centres unmarked) | 2.82%
CCOC(=O)N1CCN(C(=O)c2ccc3c(=O)n(-c4ccc(OC)cc4OC)c(=S)[nH]c3c2)CC1 | 8.51%
CC(=O)c1c2c3c(cccc3n(C)c1=O)C(=O)c1ccccc1-2 | -1.1%
Cl.OCCNc1nc(Nc2ccc(Br)cc2)nc2ccccc12 | -36.3%
COc1cc(CN(C(=S)NCC(=O)NC2CC2)C2CCCC2)cc(OC)c1OC | -1.45%
CC(=O)Nc1ncc(Cc2cccc(Cl)c2Cl)s1 | 15.8%
Cc1ccc(-c2nn(C)c(=O)c3ccccc23)cc1CN1CCCCC1 | -15%
O=C(CSc1nnnn1Cc1ccccc1)NCCc1ccccc1 | 1.1%
O=C(NCSc1ccnc(SCNC(=O)c2ccccc2)n1)c1ccccc1 | -28%
O=C(NC1CCCCCC1)C1c2ccccc2C(=O)N1C1CC1 (centres unmarked) | 10.3%
C=CCNC(=O)Cn1c(=O)c2c(ncn2CCC(C)C)n(Cc2ccccc2)c1=O | -1.69%
COc1ccc(OC)c(-c2nc(C(N)=O)c3[nH]c(=O)n(-c4ccc(F)cc4)c3n2)c1 | -1.45%
O=C(Nc1ccccc1F)c1cc(S(=O)(=O)N2CCCCC2)cs1 | -0.745%
CC(=O)Nc1cccc(NS(=O)(=O)Cc2ccc(Cl)cc2)c1 | 6.35%
CCCCN(CC)S(=O)(=O)N1CCC(C(=O)NCc2ccc(F)cc2)CC1 | -6.81%
CCOCC(=O)Nc1cccc(C(=O)OCC)c1 | -8.5%
COc1cccc(CNn2cn[nH]c2=S)c1OCc1ccccc1 | -3.37%

SMILES | hERG current change (%, negative = inhibition) at 10uM
COc1ccccc1CC(=O)N1CCN(c2ccc(F)cc2)CC1 | -11.1%
CCOc1ccc(CCN2CN(C3CCCCC3)CNC2=S)cc1OCC | -8.05%
COc1ccc(OC)c(C2=NOC(C(=O)Nc3cc(C)on3)C2)c1 (centres unmarked) | 17.2%
CN1CCN(S(=O)(=O)c2ccc(Sc3nc4ccccc4[nH]3)c3nsnc23)CC1 | -1.53%
Cc1cccc(NC2=NC(C)(C)N=C(N)N2)c1C | 16.5%
Cc1cc(C)nc(N2C(=O)CC(Cc3ccc(Cl)cc3)C2=O)n1 (centres unmarked) | 7.04%
Nn1c(SCC(=O)NC2CCS(=O)(=O)C2)nnc1-c1cccs1 (centres unmarked) | 16.7%
Cc1ccc2c(c1)Oc1ccccc1C=C2C(=O)O | 8.5%
Cc1ccc(-c2csc(N3CCC(C(N)=O)CC3)n2)cc1 | 20.2%
NS(=O)(=O)c1ccc(N2CCOCC2)c(C(=O)NCCCSc2ccccc2)c1 | -35.1%
COC(=O)CSc1nc(NC#N)nc(NC(C)(C)C)n1 | 9.11%
NC(=S)N/N=C/c1coc2ccc(Br)cc2c1=O | 25.9%
Nc1nc(Cl)cc(Sc2ccc3ccccc3c2)n1 | 14.1%
O=C(COc1ccc2c(c1)CCC2)NCc1cccc(Cl)c1 | 0.911%
COc1cccc(-c2c(NC(=O)c3ccco3)oc3ccccc3c2=O)c1 | 6.14%
COc1cc(OC)c(OC)cc1/C=N/n1c(-c2n[nH]c3c2CCC3)n[nH]c1=S | 19.6%
O=C(NCc1cccnc1)c1cnc2n(c1=O)CCS2 | 1.27%
COc1ccc(C)cc1Nc1n[n+](-c2ccccc2)c(-c2ccc(OC)c(OC)c2OC)s1.[Cl-] | -71.8%
CC(C)(CC(=O)O)CC(=O)N1CCCN(c2nccc(C(F)(F)F)n2)CC1 | 17.8%
Cc1ccc(N2C(=O)SC(Cc3ccccc3)C2=O)cc1 (centres unmarked) | 13.7%
Cn1nnnc1SCC(=O)NNC(=O)c1ccc(Cl)cc1 | 7.44%
N#Cc1c(Cl)nc(SCc2ccccc2)nc1-c1ccccc1 | 8.45%
